Reference: the supplement of paper PMC12217912
Some of the results follow. The full chains were built here from the parent and the listed change. Values near 0.05 are background.

B1: TEV protease; numbered along this chain (parent)
chain: MGESLFKGPRDYNPISSSICHLTNESDGHTTSLYGIGFGPFIITNKHLFRRNNGTLVVQSLHGVFKVKDTTTLQQHLVDGRDMIIIRMPKDFPPFPQKLKFREPQREERICLVTTNFQTKSMSSMVSDTSCTFPSGDGIFWKHWIQTKDGQCGSPLVSTRDGFIVGIHSASNFTNTNNYFTSVPKNFMELLTNQEAQQWVSGWRLNADSVLWGGHKVFMVKPEEPFQPVKEATQL

Variants of: B1
Assay: raw area under fraction-flipped curve 0-4 h after induction (AUC4h, not background-subtracted), DNA-recorder readout of cleavage of the substrate (dimensionless); higher = more cleavage of the substrate by the protease variant
Conditions: temperature: 34 °C; time window: 0-4 h after rhamnose induction
Protocol: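 In vivo DNA recorder in E. coli TOP10(DE3) ΔrhaA at 34 °C. Each TEVp single-site mutant (parent TEVp 0) is paired with a single-site variant of the 7-mer TEVs (canonical ENLYFQ|S). The substrate sits between flexible linkers in a Bxb1-sfGFP-TEVs-SsrA fusion, so cleavage stabilises Bxb1 and speeds flipping of a recombination array, read by NGS. The value is the raw area under the fraction-flipped curve over 0-4 h after rhamnose induction (AUC4h), with ≥20 reads per time point. It is not background-subtracted; inactive controls average about 0.047.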
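Note: Bxb1 expression induced with 0.2% (w/v) L-rhamnose at OD600 near 0.5, cultures sampled hourly, flipped fraction per protease–substrate barcode pair counted by paired-end Illumina sequencing.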

| Variant | area with substrate CNLYFQS | area with substrate DNLYFQS | area with substrate FNLYFQS | area with substrate HNLYFQS | area with substrate INLYFQS | area with substrate LNLYFQS | area with substrate MNLYFQS | area with substrate NNLYFQS | area with substrate PNLYFQS | area with substrate QNLYFQS | area with substrate SNLYFQS | area with substrate TNLYFQS | area with substrate VNLYFQS | area with substrate WNLYFQS | area with substrate YNLYFQS | area with substrate GNLYFQS | area with substrate KNLYFQS | area with substrate RNLYFQS |
| --- | --- | --- | --- | --- | --- | --- | --- | --- | --- | --- | --- | --- | --- | --- | --- | --- | --- | --- |
| N13L | 0.0832 | 0.0775 | 0.0604 | 0.068 | 0.0693 | 0.0676 | 0.0785 | 0.0693 | 0.0839 | 0.0848 | 0.0652 | 0.067 | 0.0771 | 0.0625 | 0.0666 |  |  |  |
| N13E | 0.0749 | 0.094 |  | 0.0656 |  | 0.0737 | 0.0724 | 0.0779 | 0.0759 |  | 0.0564 | 0.0679 | 0.0599 | 0.065 | 0.0398 | 0.0625 |  |  |
| N13P | 0.0596 | 0.0719 |  | 0.0636 | 0.0632 | 0.0477 | 0.0768 | 0.0618 |  |  | 0.0632 | 0.0582 | 0.0563 | 0.0622 | 0.047 |  | 0.0502 |  |
| N13I | 0.0678 | 0.0709 | 0.0631 | 0.0599 |  |  | 0.0667 |  | 0.059 |  | 0.0773 | 0.0606 | 0.056 | 0.0595 | 0.0579 | 0.0657 |  |  |
| I19K | 0.0535 | 0.0417 | 0.0519 |  |  |  | 0.0756 | 0.0732 | 0.0498 |  | 0.0496 | 0.0468 |  | 0.0542 | 0.0626 | 0.0454 | 0.0568 |  |
| I19P | 0.0423 | 0.0489 | 0.0403 | 0.0399 | 0.041 | 0.0539 | 0.041 | 0.0433 | 0.0431 |  | 0.0669 | 0.0446 | 0.0437 | 0.0436 | 0.0354 | 0.042 | 0.0488 | 0.0969 |
| P9F | 0.0593 | 0.0565 | 0.103 | 0.0671 |  | 0.0562 | 0.0715 | 0.0727 | 0.0605 |  | 0.063 | 0.057 | 0.0642 | 0.0579 | 0.0505 | 0.0714 | 0.0597 | 0.0709 |
| P9L | 0.078 | 0.0996 |  | 0.0725 | 0.0823 |  |  |  | 0.0681 |  |  | 0.0742 |  |  | 0.0617 | 0.0978 | 0.0643 | 0.0589 |
| S4C | 0.0718 | 0.0727 |  | 0.058 | 0.0675 | 0.0554 | 0.0489 | 0.0716 | 0.0715 |  | 0.0609 | 0.0705 | 0.0539 | 0.0551 | 0.0638 |  |  |  |
| S4H | 0.0691 | 0.0935 | 0.0592 | 0.0753 | 0.0715 | 0.0443 | 0.0631 | 0.0789 | 0.0716 |  |  | 0.109 |  | 0.05 | 0.0254 | 0.0681 | 0.0635 | 0.0597 |
| D11V | 0.0581 | 0.0799 | 0.0497 | 0.058 | 0.0636 |  | 0.0624 | 0.0672 | 0.0636 |  | 0.0506 | 0.0684 | 0.0567 | 0.0595 | 0.0511 |  | 0.0568 |  |
| S18A | 0.0727 | 0.0692 | 0.0609 | 0.0552 | 0.057 |  |  |  |  |  | 0.076 | 0.0668 |  | 0.0729 |  |  | 0.0716 |  |
| I15E | 0.0617 | 0.0428 | 0.0315 | 0.0652 | 0.0528 |  |  | 0.0543 | 0.0515 |  | 0.072 | 0.044 |  | 0.0554 | 0.0543 | 0.0581 | 0.0636 |  |
